# Source: ChEMBL document CHEMBL4888484, “Replenishing the malaria drug discovery pipeline: Screening and hit evaluation of the MMV Hit Generation Library 1 (HGL1) against asexual blood stage Plasmodium falciparum ,using a nano luciferase reporter read-out” (2022)
# Screen size: about 150,000 compounds; about 540 (0.36%) showed an effect of 50% or more. Some of the results follow.
# Test system: Plasmodium falciparum
# Assay: Primary screen in NF54 nanoGlo assay, in single point, at 2uM, 72h; a lower Z score goes with more inhibition
# Format: functional, Erythrocyte
# Details: timepoint 72 hour
Structure (SMILES),% Inhibition,Z score
COC(=O)c1cc(N)cc(C(=O)OC)c1,35%,-3.98
O=C(Cn1cnc2nc(N3CCOCC3)sc2c1=O)Nc1cccc(F)c1,-13%,1.54
COCCC1(c2noc(-c3ccncc3)n2)CCN(C(=O)c2cn[nH]c2)CC1,5%,-0.69
c1ccc(-c2ncc(CNc3ncccn3)s2)nc1,0%,0.01
Cc1nc(CCC(=O)NCc2ccc3[nH]c4c(c3c2)CCCCCC4)n[nH]1,-16%,1.94
CCOc1cc(NC[C@H](O)C(C)(C)C)ncn1,-6%,0.94
O=C(c1ccncc1)N1CCCC[C@@H]1CCN1CCCCC1,-1%,0.22
COc1ccc(OC[C@H]2CCCN(Cc3nnc(C)s3)C2)cc1,-1%,0.15
COCc1ccc(CC2CCN(C(=O)c3ccco3)CC2)cc1,-14%,2.69
CCC(=O)Nc1ccc(Cc2nc3cc(C(=O)N4CCCCCC4)ccc3[nH]2)cc1,-15%,1.78
CCn1cc(CN2C[C@@H]3c4ccc(OC)cc4OC[C@]3(CO)C2)cn1,-1%,0.26
CC1(CNC2CCC(NC(=O)OC(C)(C)C)CC2)CCOCC1 (stereo not given),-10%,1.68
OCC#Cc1csc(CN2CC[C@H](CO)C2)c1,5%,-0.88
CN(CCc1ncon1)C(=O)CCOc1ccccc1,-18%,3.38
O=C(CCOc1ccccc1)N1CC[C@H](c2ccc(F)cc2)[C@@H](O)C1,-14%,2.04
O=C(NCc1ccco1)NC[C@H]1CCCO1,1%,-0.1
CCOc1ccc(-c2nc(N(CC)Cc3ccccc3)c3ccccc3n2)cc1,3%,-0.43
COc1ccc(N(C(=O)Cn2nnc3ccccc32)[C@@H](C(=O)Nc2ccc(F)cc2)c2cc(OC)c(OC)c(OC)c2)cc1,-23%,2.72
CN(C)c1ccc(/C=C\c2ccnc(/C=C/c3ccc(N(C)C)cc3)c2)cc1,6%,-1.06
COc1cc(OC)nc(N2CCC([C@H](C)N3CCN(C)CC3)CC2)n1,-2%,0.15
N#Cc1ccccc1OCCN1CCS(=O)(=O)CC1,-3%,0.38
O=C(NC1CCCC1)C1C2CCC(C2)N1C(=O)c1ccccc1 (stereo not given),21%,-2.41
N#Cc1ccc(C(=O)N2CCC[C@@](F)(CO)C2)[nH]1,-27%,5.08
CC(C)C[C@@H](CO)Nc1nccc(C(F)(F)F)n1,-11%,1.54
CCN(CC)C(=O)c1coc(CN2C(=O)COc3ccc(C(=O)COc4ccc(OC)cc4)cc32)n1,-25%,2.38
O=C1COc2cc(C(=O)N(CCc3ccccc3)Cc3ccccc3)ccc2N1,9%,-1.18
C[C@H]1CCN(c2nnnn2Cc2ccnn2C)CC12CCC2,-6%,0.98
Cc1cc(C(F)(F)F)cnc1N[C@H]1[C@@H]2COC[C@@H]21,2%,-0.36

Structure (SMILES),% Inhibition,Z score
Cc1ccc(Nc2[nH]c(NCc3ccc4c(c3)OCO4)nc3nncc2-3)cc1C,1%,-0.19
COc1cccc(-c2ccnc3nc(N4CCOCC4)[nH]c(=O)c23)c1,-16%,2.29
Cc1ccc(C)c(S(=O)(=O)Nc2cccn3nc(C4CCC4)nc23)c1,-5%,0.88
N#Cc1ccc(C(=O)N[C@H]2CCN(c3cc(-c4ccc(Cl)cc4)n[nH]3)C2)cc1,-14%,1.46
Cn1nccc1COCC(=O)Nc1cccc2[nH]cnc12,-12%,1.06
CCOc1ccc(Nc2cnnc(O)n2)cc1,3%,-0.4
CC(C)c1cc(C(=O)Oc2ccc(-c3nnco3)cc2)c2ccccc2n1,-7%,0.69
COc1ccccc1CN1Cc2cc(NS(=O)(=O)c3ccc(F)cc3)ccc2O[C@@H](C)C1=O,1%,-0.1
C[C@@H]1CN(C(=O)c2cccc3ccc(O)nc23)C[C@H](C)N1C,-35%,4.09
CCc1nnc(NCc2ccc3c(c2)OCCO3)s1,-12%,2.25
CC1Cc2ccccc2N1C(=O)C1CCCCC1C(=O)NCC#N (stereo not given),3%,-0.4
CCn1cc(N(CC(C)C)C(=O)C(F)F)cn1,2%,-0.3
CCOCCNC(=O)CC(=O)Nc1cc(Cl)ccc1C,2%,-0.31
COc1cccc(-c2oncc2CN2CCN(C(C)=O)CC2)c1,10%,-1.91
CC(C)NC(=O)C1Cc2cc(C(F)(F)F)ccc2N2CCN(Cc3ccc(F)cc3)CC12 (stereo not given),4%,-0.45
CN(C)c1ccc(-c2noc([C@H]3C[C@@H]3c3ccc(F)cc3F)n2)cn1,-13%,1.28
CCS(=O)(=O)Oc1ccc(Cl)cc1CN(CCN(C)C)C(=O)C(C)C,2%,-0.31
Cn1cc(-c2ccc(F)c(C(=O)N3CC[C@H](NS(C)(=O)=O)C3)c2)cn1,-11%,2.14
CN(C)Cc1cc(C(=O)N[C@H](c2cccs2)C2(CO)CCC2)no1,1%,-0.09
O=C(COc1ccc(Br)cc1Br)N(Cc1ccccc1)C1CC1,-11%,1.02
Brc1cnc2[nH]c(C3CC3)nc2c1,0%,0.01
Cc1noc(C)c1CNC(=O)c1cnccn1,-2%,0.2
Cc1ccc2oc(N[C@@H]3C(=O)NCC3(C)C)nc2c1,3%,-0.59
O=C(N1CCOCC2(CCC2)C1)C12CCC(CC1)C2,-22%,3.39
COC1(c2noc(C(=O)N3CCC[C@H](C)C3)n2)CCC1,0%,0.01
Cc1ccc(CNCc2scnc2C)c(OCC2CC2)c1,-4%,0.5
COCCN1C(=O)C[C@H](CNc2nccn3nc(C)cc23)[C@H]1c1cnn(C)c1,-8%,1.4
